Some of the results follow. Further columns of the screen follow, without active or inactive calls. The list favours compounds with an active or inconclusive main result. Words in brackets tell the shape of the fitted curve; partial curves, single points and poor fits give uncertain potencies.
Columns and labels:
[1] = biological target: Histamine N-methyltransferase (Homo sapiens) (UniProt P50135); experiment: Confirmatory Screen for Target Class Profiling of Small Molecule Inhibitors of Methyltransferases (AID 1745852); details: MTase-Glo luminescence, SAH detection, recombinant enzyme; measured here: HNMT inhibition potency;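 note: inhibitor potency for blocking SAH production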
[2] = biological target: Nicotinamide N-methyltransferase (Homo sapiens) (UniProt P40261); experiment: as above; details: MTase-Glo luminescence, SAH detection, recombinant enzyme; measured here: NNMT inhibition potency
Tags give direction and shape of the fitted curve.

Chain of UniProt P50135 (P50135 whole entry, looked up): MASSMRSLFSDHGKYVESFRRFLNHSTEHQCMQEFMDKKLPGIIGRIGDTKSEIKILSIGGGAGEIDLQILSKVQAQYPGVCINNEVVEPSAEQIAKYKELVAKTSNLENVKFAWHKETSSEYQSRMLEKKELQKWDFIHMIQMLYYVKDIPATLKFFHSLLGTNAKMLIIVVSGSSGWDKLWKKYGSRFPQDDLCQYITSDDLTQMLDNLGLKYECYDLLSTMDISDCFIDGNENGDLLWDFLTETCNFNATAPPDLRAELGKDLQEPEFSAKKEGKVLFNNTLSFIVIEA
Chain of UniProt P40261 (P40261 whole entry, looked up): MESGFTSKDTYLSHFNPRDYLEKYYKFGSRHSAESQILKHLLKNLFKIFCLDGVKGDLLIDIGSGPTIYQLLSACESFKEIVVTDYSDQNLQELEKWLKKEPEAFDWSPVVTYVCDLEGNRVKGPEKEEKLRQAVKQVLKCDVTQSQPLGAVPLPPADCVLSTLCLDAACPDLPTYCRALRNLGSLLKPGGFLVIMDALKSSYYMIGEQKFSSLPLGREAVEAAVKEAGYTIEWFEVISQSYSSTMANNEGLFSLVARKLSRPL

SMILES	IC50 [1]	IC50 [2]
CN(C)CCOCC1(C)COc2ccc(C(=O)Nc3ccc4[nH]ccc4c3)cc2N1 (configuration not stated)	7.84 µM [falling, full curve]	–
COc1cc2nc(N3CCCCC3)nc(NC3CCN(Cc4ccccc4)CC3)c2cc1OC	19.2 µM [falling, partial curve]	21.5 µM [falling, partial curve]
N#Cc1ccc2[nH]cc(CCCCN3CCN(c4ccc5oc(C(N)=O)cc5c4)CC3)c2c1	13.6 µM [falling, partial curve]	8.57 µM [falling, full curve]
COc1ccc(CCN(C)CCCOc2nsc(-c3ccccc3)n2)cc1OC	15.2 µM [falling, partial curve]	24.1 µM [falling, partial curve]
Cn1cc(CN2CCCC(COc3ccccc3C(=O)N3CCCCC3)C2)c2ccccc21 (configuration not stated)	21.5 µM [falling, partial curve, poor fit]	–
CCC1CCCCN1CCCNC(=O)Cn1ccc2cc(S(=O)(=O)N3CCCCC3)ccc21 (configuration not stated)	6.81 µM [falling, partial curve]	–
CCN1CCN(c2nc3c(S(=O)(=O)c4ccc(Br)cc4)nnn3c3ccccc23)CC1	10.8 µM [falling, partial curve]	–
CN(C)c1ccc(Nc2c3ccc(NC(=O)CCN4CCCC4)cc3nc3cc(NC(=O)CCN4CCCC4)ccc23)cc1	3.83 µM [falling, full curve]	24.1 µM [falling, partial curve]

Source: PubChem BioAssay (NCATS)
